# Laboratory results reported in PubChem BioAssay AID1476 (National Center for Advancing Translational Sciences (NCATS), 2009).
# Screen size: about 200,000 compounds; about 4,500 (2.2%) were called active. Inconclusive results, whose numbers are uncertain, are shown with a selection of clear calls. Calls come from the whole dose curve; as a rule, active = well fitted inhibition curve with a large enough effect; inconclusive = small, poorly fitted or top-dose-only effect, or effect the other way; inactive = flat fitted curve, though single readings scatter. A potency beside an inconclusive call is a rough fit, not a confirmed value.
# Target: Cruzipain (Trypanosoma cruzi) (UniProt P25779)
# Assay: qHTS Assay for Promiscuous and Specific Inhibitors of Cruzain (without detergent); note: nearly all actives have a fitted effect of over 40% in size;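 for max response, negative = inhibition: plate controls were enzyme without inhibitor for no effect and buffer without enzyme for full effect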
# Details: purified cruzain, Z-FR-AMC fluorescence, no detergent
# In short: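 Detergent-free condition (0.00005% Triton X-100) in acetate buffer pH 5.5 with DTT. 1.5 nM enzyme and compound were pre-mixed 15 min, then 2 uM Z-FR-AMC substrate added; reaction progress from fluorescence change between first and third reads (60 s).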
# Potency is the fitted concentration of half-maximal effect; tags give direction and shape of the fitted curve.
# UniProt P25779, sequence (P25779 whole entry, looked up): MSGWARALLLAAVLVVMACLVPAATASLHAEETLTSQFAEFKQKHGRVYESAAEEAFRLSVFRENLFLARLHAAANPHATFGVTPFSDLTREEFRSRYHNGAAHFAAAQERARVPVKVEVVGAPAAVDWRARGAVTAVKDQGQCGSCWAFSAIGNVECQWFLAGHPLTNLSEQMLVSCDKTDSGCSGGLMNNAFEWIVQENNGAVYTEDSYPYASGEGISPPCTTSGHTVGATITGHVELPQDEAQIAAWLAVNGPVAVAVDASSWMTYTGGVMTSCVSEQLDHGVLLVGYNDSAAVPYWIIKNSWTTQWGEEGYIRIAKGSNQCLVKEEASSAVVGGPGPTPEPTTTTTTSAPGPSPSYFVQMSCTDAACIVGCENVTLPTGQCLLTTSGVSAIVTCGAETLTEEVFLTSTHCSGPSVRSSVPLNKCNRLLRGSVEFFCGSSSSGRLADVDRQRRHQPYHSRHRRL
Structure (SMILES),Potency,"max response, negative = inhibition"
COc1cc2ccccc2cc1C(=O)Nc1cccc(-c2nc3ccccc3o2)c1,"inconclusive: 25.1 µM [inhibitor, single point]",–
COc1ccc(C(c2nnnn2Cc2cccs2)N2CCN(c3ccccc3F)CC2)cc1OC (stereo unspecified),"inconclusive: 31.6 µM [activator, single point]",–
CC(C)C(c1nnnn1C1CCCC1)N1CCc2ccccc21 (stereo unspecified),–,inactive: 1.93%
Oc1ccc(/C=N/Nc2cccc3cccnc23)c(O)c1,"inconclusive: 31.6 µM [inhibitor, single point]",–
Brc1ccc(CN2CCc3nc(Nc4ccccc4)ncc3C2)s1,"inconclusive: 39.8 µM [inhibitor, single point]",–
CCOc1ccc(C2N(c3ccc(Cl)cc3)C(=O)C3CCCN32)cc1OC (stereo unspecified),"inconclusive: 31.6 µM [activator, single point]",–
O=c1c(-c2ccccc2)nc2cnc(Oc3ccccc3)nc2n1Cc1cccs1,"inconclusive: 20 µM [inhibitor, partial curve]",–
Cc1ccc(N2CCN(/N=C/c3cccs3)CC2)cc1,"inconclusive: 31.6 µM [inhibitor, single point]",–
Cc1cccc(-n2cc(-c3ccc([N+](=O)[O-])cc3)[nH]c2=S)c1,"inconclusive: 39.8 µM [inhibitor, single point]",–
CCOC(=O)Nc1nc(-c2ccccc2)c(C)s1,–,inactive: 1.89%
Cc1ccc(Cl)cc1NC(=O)Cn1nnc2sc3c(c2c1=O)CCC(C(C)(C)C)C3 (stereo unspecified),active: 25.1 µM,–
O=C(CN1CCOCCOCCN(CC(=O)Nc2ccccc2)CCOCC1)Nc1ccccc1,–,inactive: 22.2%
COC(=O)CC1C(C)(C)C(O)C2CC3=C4CC(O)OC(c5ccoc5)[C@]4(C)CCC3[C@@]1(C)C2=O (stereo partly specified),"inconclusive: 20 µM [activator, partial curve]",–
COc1cccc(C2CC(c3ccccc3)n3ncnc3N2)c1 (stereo unspecified),"inconclusive: 1 µM [inhibitor, single point]",–
COc1ccc(OCc2ccc(-c3nc(C#N)c(NCc4ccc(F)cc4)o3)o2)cc1,–,inactive: -0.0494%
CCOc1ccc(-n2c(-c3ccc(Br)cc3)cc3c2CC(C)(C)CC3=O)cc1,–,inactive: -0.0574%
COc1ccc(S(=O)(=O)N(CC(=O)N2CCOCC2)Cc2ccccc2)cc1C,"inconclusive: 39.8 µM [activator, single point]",–
COc1ccc(-n2nnnc2SCC(=O)Nc2ccccc2)cc1,"inconclusive: 25.1 µM [inhibitor, single point]",–
COC(=O)c1ccc(NC(=O)COc2ccccc2OC)cc1,–,inactive: -3.42%
COc1ccccc1-n1c(SCC(N)=O)nnc1-c1ccc(S(=O)(=O)N2CCCCC2)cc1,"inconclusive: 39.8 µM [activator, single point]",–
Cc1cc(C)c2cc(CN(CCO)C(c3nnnn3Cc3ccc(F)cc3)C(C)C)c(=O)[nH]c2c1 (stereo unspecified),"inconclusive: 25.1 µM [activator, single point]",–
COc1cc(CN(C(=O)c2ccccc2)c2ccccn2)cc(OC)c1OC,–,inactive: -0.207%

Structure (SMILES),Potency,"max response, negative = inhibition"
CN1CCN(S(=O)(=O)c2ccc(NC(=S)NC(=O)c3ccc(Cl)cc3)cc2)CC1,"inconclusive: 39.8 µM [inhibitor, single point]",–
CC(C)(C)C(=O)[C@@H]1[C@@H]2C(=O)N(Cc3ccccc3)C(=O)[C@@H]2[C@H]2c3ccccc3C=CN12,"inconclusive: 39.8 µM [inhibitor, single point]",–
O=C1CCCC1C(O)c1ccc2ccccc2c1 (stereo unspecified),–,inactive: 7.39%
COc1ccc(Cn2ccn(CC(=O)Nc3cc(C)ccc3C)c(=O)c2=O)cc1,"inconclusive: 39.8 µM [activator, single point]",–
C=CCn1c(N)c(C(=O)NCC2CCCO2)c2nc3ccccc3nc21 (stereo unspecified),"inconclusive: 25.1 µM [activator, partial curve]",–
CC(C)c1ccc(-c2noc(SCC(=O)N3CCN(c4ccccc4F)CC3)n2)cc1,–,inactive: 2.3%
Cc1ccc(CNC(=O)c2ccc3c(c2)NC(=O)C(CS(=O)(=O)Cc2cccc(C)c2)N3)cc1 (stereo unspecified),–,inactive: -20.6%
CC(C)OCCCNC(=O)CN1C(=O)/C(=C/c2ccccc2)Sc2ccccc21,"inconclusive: 31.6 µM [activator, single point]",–
CCOC(=O)c1ccc(NC(=O)Nc2cc(C)on2)cc1,active: 15.8 µM,–
CCOC(=O)NC(=O)c1cn(CCN(C)C)c(=O)[nH]c1=O,–,inactive: -3.66%
COc1cc(C(C)=O)ccc1COc1ccc(C(=O)OCC(=O)NC(C)(C)C)cc1OC,"inconclusive: 31.6 µM [activator, single point]",–
Cc1cccc(N(C)C(=O)C2CCC(CNS(=O)(=O)c3cccc4nsnc34)CC2)c1 (stereo unspecified),–,inactive: 12.6%
O=C(c1ccc(CNc2c(NC3CCCCC3)c(=O)c2=O)cc1)N1CCc2ccccc21,"inconclusive: 25.1 µM [inhibitor, single point]",–
COc1cccc(CNC(=O)Cn2c(=O)cc(C)c3c(C)nn(C)c32)c1OC,–,inactive: -14%
CCc1cccc(NC(=O)Cn2c(=O)n(CC3CCC(C(=O)NC)CC3)c(=O)c3sccc32)c1 (stereo unspecified),"inconclusive: 39.8 µM [activator, single point]",–
Cn1c(C(=O)NCc2ccccc2Cl)cc2sc(Cl)cc21,–,inactive: -20.3%
COc1ccc(CN(Cc2ccccn2)S(=O)(=O)c2ccc(-n3cnnn3)c(OC)c2)cc1,"inconclusive: 31.6 µM [activator, single point]",–
CCOc1ccc(N2CC(C(=O)Nc3ccc(S(=O)(=O)N4CCOCC4)cc3)CC2=O)cc1 (stereo unspecified),"inconclusive: 39.8 µM [activator, single point]",–
Cn1c(=O)[nH]c(=O)c2c1nc(NCc1ccco1)n2CCCc1ccccc1,"inconclusive: 25.1 µM [inhibitor, single point]",–
N#C/C(=C/c1ccc(O)cc1)c1nc(-c2ccc(-c3ccccc3)cc2)cs1,–,inactive: 10.2%
CCOc1ccccc1-n1c(N)c(C(=O)OC)c2nc3ccccc3nc21,–,inactive: 2.08%
COC(=O)c1ccc(C2/C(=C(\O)c3ccc(OC)c(C)c3)C(=O)C(=O)N2c2cc(C)on2)cc1 (stereo unspecified),"inconclusive: 39.8 µM [activator, single point]",–

Structure (SMILES),Potency,"max response, negative = inhibition"
O=c1c2c3c(sc2nnn1CCCCOc1ccc(Cl)cc1)CCCC3,–,inactive: 1.3%
C/C(=N\NC(=O)COc1ccc(C(C)(C)C)cc1)c1ccc(N2CCOCC2)cc1,"inconclusive: 39.8 µM [activator, single point]",–
CCCSC1=NC2(CCN(C(=O)NC3CCCCC3)CC2)N=C1c1ccc(OC)cc1,–,inactive: 4.54%
CSc1ccc(/C=C/C(=O)NC23CC4CC(CC(C4)C2)C3)cc1,"inconclusive: 31.6 µM [inhibitor, single point]",–
O=C(NCc1ccccc1Cl)c1ccc2c(c1)ncn2-c1cccc(F)c1,–,inactive: -9.76%
Brc1cccc(-c2nn(-c3ccccc3)c3c2cnc2cc4c(cc23)OCO4)c1,"inconclusive: 15.8 µM [inhibitor, partial curve]",–
Cc1cc(C)cc(NC(=O)Cn2ncn3c(cc4ccccc43)c2=O)c1,"inconclusive: 31.6 µM [inhibitor, single point]",–
Cc1ccc(CNC(=O)C2CCCN(c3nc4ccccc4n4cccc34)C2)cc1 (stereo unspecified),–,inactive: 8.86%
O=P1(O)Oc2c(c(-c3ccccc3)cc3ccccc23)-c2c(-c3ccccc3)cc3ccccc3c2O1,"inconclusive: 25.1 µM [activator, partial curve]",–
CN(C)c1ccc(/C=N/NC(=O)C(O)(c2ccccc2)c2ccccc2)o1,"inconclusive: 31.6 µM [activator, single point]",–
CCOC(=O)C1=C(C)N=c2s/c(=C/c3ccco3)c(=O)n2C1c1cccc(OC)c1 (stereo unspecified),active: 25.1 µM,–
N#Cc1nc(-c2cccc3ccccc23)oc1N1CCCCC1,"inconclusive: 39.8 µM [inhibitor, single point]",–
Cc1ccccc1-c1nc(-c2ccc(NC(=O)c3cccs3)cc2)no1,"inconclusive: 39.8 µM [inhibitor, single point]",–
COc1ccc(CCn2c(C)cc(C(=O)CSc3nc(N)cc(=O)[nH]3)c2C)cc1,active: 25.1 µM,–
COc1c(S(=O)(=O)N2CCN(c3ccc(F)cc3)CC2)ccc(Cl)c1Cl,"inconclusive: 25.1 µM [inhibitor, single point]",–
CCc1ccc(C2c3c(-c4cc(C)ccc4O)n[nH]c3C(=O)N2CCO)cc1 (stereo unspecified),"inconclusive: 39.8 µM [inhibitor, single point]",–
N#CC1=C2SCN(c3ccccc3)CN2C(=O)CC1c1ccccc1Cl (stereo unspecified),"inconclusive: 39.8 µM [inhibitor, single point]",–
CCc1ccc(NCc2cc3cc4c(cc3n(CC(=O)Nc3ccc(OC)cc3)c2=O)OCO4)cc1,–,inactive: 1.96%
CCc1nc(N2CCC3(CC2)OCCO3)c2nnn(Cc3ccccc3Cl)c2n1,"inconclusive: 39.8 µM [activator, single point]",–
COc1ccc(-c2c(C#N)c(SCC(=O)Nc3ccc(C)c(C)c3)nc(C)c2C(=O)Nc2ccccc2)cc1OC,"inconclusive: 15.8 µM [inhibitor, single point]",–
CC1=CCC(C(=O)N/N=C/c2cccs2)C(c2ccc(F)cc2)C1 (stereo unspecified),"inconclusive: 39.8 µM [activator, single point]",–
COc1ccc(NC(=O)CSc2nc3ccccc3cc2Cc2ccccc2)cc1,"inconclusive: 39.8 µM [inhibitor, single point]",–
